Measurements reported in the supplement of paper PMC8728848.
Some of the results follow.

Assays:
Experiment in all cases: glycan array binding signal (z-score within array); higher = stronger binding
Details in all cases: glycan notation: IUPAC condensed, linker removed
[1] = biological target: Neu5Ac(a2-3)Gal(b1-3)GlcNAc
Method in brief: (§1)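 Glycan array binding is given as a within-array Z-score, which can be read as non-binding when negative. The arrays, 3228 of them, came from the Consortium for Functional Glycomics database and were retained only where the protein sequence was available. Z-scores were averaged across arrays of the same protein sequence at different concentrations or buffers and across linkers.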

[2] = biological target: Neu5Ac(a2-3)Gal(b1-3)GlcNAc(b1-2)Man
Method in brief: as §1

[3] = biological target: Neu5Ac(a2-3)Gal(b1-3)GlcNAc(b1-2)Man(a1-3)[GlcNAc(b1-4)][Neu5Ac(a2-3)Gal(b1-3)GlcNAc(b1-2)Man(a1-6)]Man(b1-4)GlcNAc(b1-4)GlcNAc
Method in brief: as §1

[4] = biological target: Neu5Ac(a2-3)Gal(b1-3)GlcNAc(b1-2)Man(a1-3)[Neu5Ac(a2-3)Gal(b1-3)GlcNAc(b1-2)Man(a1-6)]Man(b1-4)GlcNAc(b1-4)GlcNAc
Method in brief: as §1

[5] = biological target: Neu5Ac(a2-3)Gal(b1-3)GlcNAc(b1-2)[Neu5Ac(a2-3)Gal(b1-3)GlcNAc(b1-4)]Man(a1-6)[Neu5Ac(a2-3)Gal(b1-3)GlcNAc(b1-2)Man(a1-3)]Man(b1-4)GlcNAc(b1-4)GlcNAc
Method in brief: as §1

[6] = biological target: Neu5Ac(a2-3)Gal(b1-3)GlcNAc(b1-3)Gal(b1-3)GlcNAc
Method in brief: as §1

[7] = biological target: Neu5Ac(a2-3)Gal(b1-3)GlcNAc(b1-3)Gal(b1-4)GlcNAc
Method in brief: as §1

[8] = biological target: Neu5Ac(a2-3)Gal(b1-3)GlcNAc(b1-3)GalNAc
Method in brief: as §1

[9] = biological target: Neu5Ac(a2-3)Gal(b1-3)GlcNAc(b1-6)GalNAc
Method in brief: as §1

[10] = biological target: Neu5Ac(a2-3)Gal(b1-3)GlcNAc6S
Method in brief: as §1

[11] = biological target: Neu5Ac(a2-3)Gal(b1-3)[Fuc(a1-4)]GlcNAc
Method in brief: as §1

[12] = biological target: Neu5Ac(a2-3)Gal(b1-3)[Fuc(a1-4)]GlcNAc(b1-3)Gal(b1-3)[Fuc(a1-4)]GlcNAc
Method in brief: as §1

[13] = biological target: Neu5Ac(a2-3)Gal(b1-3)[Fuc(a1-4)]GlcNAc(b1-3)Gal(b1-4)[Fuc(a1-3)]GlcNAc
Method in brief: as §1

[14] = biological target: Neu5Ac(a2-3)Gal(b1-3)[GlcNAc(b1-6)]GalNAc
Method in brief: as §1

[15] = biological target: Neu5Ac(a2-3)Gal(b1-3)[Neu5Ac(a2-6)]GalNAc
Method in brief: as §1

[16] = biological target: Neu5Ac(a2-3)Gal(b1-3)[Neu5Ac(a2-6)]GlcNAc(b1-3)[Fuc(a1-3)[Gal(b1-4)]GlcNAc(b1-6)]Gal(b1-4)Glc
Method in brief: as §1

[17] = biological target: Neu5Ac(a2-3)Gal(b1-3)]Neu5Ac(a2-3)Gal(b1-4)]GlcNAc
Method in brief: as §1

Neu5Ac(a2-3)Gal(b1-4)Glc = biological target: Neu5Ac(a2-3)Gal(b1-4)Glc
Method in brief: as §1

[18] = biological target: Neu5Ac(a2-3)Gal(b1-4)GlcNAc
Method in brief: as §1

[19] = biological target: Neu5Ac(a2-3)Gal(b1-4)GlcNAc(b1-2)Man
Method in brief: as §1

[20] = biological target: Neu5Ac(a2-3)Gal(b1-4)GlcNAc(b1-2)Man(a1-3)[GlcNAc(b1-4)][Neu5Ac(a2-3)Gal(b1-4)GlcNAc(b1-2)Man(a1-6)]Man(b1-4)GlcNAc(b1-4)GlcNAc
Method in brief: as §1

[21] = biological target: Neu5Ac(a2-3)Gal(b1-4)GlcNAc(b1-2)Man(a1-3)[Neu5Ac(a2-3)Gal(b1-4)GlcNAc(b1-2)Man(a1-6)]Man(b1-4)GlcNAc(b1-4)GlcNAc
Method in brief: as §1

[22] = biological target: Neu5Ac(a2-3)Gal(b1-4)GlcNAc(b1-2)Man(a1-3)[Neu5Ac(a2-3)Gal(b1-4)GlcNAc(b1-2)Man(a1-6)]Man(b1-4)GlcNAc(b1-4)[Fuc(a1-6)]GlcNAc
Method in brief: as §1

[23] = biological target: Neu5Ac(a2-3)Gal(b1-4)GlcNAc(b1-2)Man(a1-3)[Neu5Ac(a2-6)Gal(b1-4)GlcNAc(b1-2)Man(a1-6)]Man(b1-4)GlcNAc(b1-4)GlcNAc
Method in brief: as §1

[24] = biological target: Neu5Ac(a2-3)Gal(b1-4)GlcNAc(b1-2)[Neu5Ac(a2-3)Gal(b1-4)GlcNAc(b1-4)]Man(a1-3)[GlcNAc(b1-4)][Neu5Ac(a2-3)Gal(b1-4)GlcNAc(b1-2)[Neu5Ac(a2-3)Gal(b1-4)GlcNAc(b1-6)]Man(a1-6)]Man(b1-4)GlcNAc(b1-4)GlcNAc
Method in brief: as §1

[25] = biological target: Neu5Ac(a2-3)Gal(b1-4)GlcNAc(b1-2)[Neu5Ac(a2-3)Gal(b1-4)GlcNAc(b1-4)]Man(a1-3)[GlcNAc(b1-4)][Neu5Ac(a2-3)Gal(b1-4)GlcNAc(b1-4)Man(a1-6)]Man(b1-4)GlcNAc(b1-4)GlcNAc
Method in brief: as §1

[26] = biological target: Neu5Ac(a2-3)Gal(b1-4)GlcNAc(b1-2)[Neu5Ac(a2-3)Gal(b1-4)GlcNAc(b1-6)]Man(a1-6)[Neu5Ac(a2-3)Gal(b1-4)GlcNAc(b1-2)Man(a1-3)][GlcNAc(b1-4)]Man(b1-4)GlcNAc(b1-4)GlcNAc
Method in brief: as §1

[27] = biological target: Neu5Ac(a2-3)Gal(b1-4)GlcNAc(b1-3)Gal
Method in brief: as §1

[28] = biological target: Neu5Ac(a2-3)Gal(b1-4)GlcNAc(b1-3)Gal(b1-3)GlcNAc
Method in brief: as §1

[29] = biological target: Neu5Ac(a2-3)Gal(b1-4)GlcNAc(b1-3)Gal(b1-4)GlcNAc
Method in brief: as §1

[30] = biological target: Neu5Ac(a2-3)Gal(b1-4)GlcNAc(b1-3)Gal(b1-4)GlcNAc(b1-2)Man(a1-3)[Neu5Ac(a2-3)Gal(b1-4)GlcNAc(b1-3)Gal(b1-4)GlcNAc(b1-2)Man(a1-6)]Man(b1-4)GlcNAc(b1-4)GlcNAc
Method in brief: as §1

[31] = biological target: Neu5Ac(a2-3)Gal(b1-4)GlcNAc(b1-3)Gal(b1-4)GlcNAc(b1-3)Gal(b1-4)GlcNAc
Method in brief: as §1

[32] = biological target: Neu5Ac(a2-3)Gal(b1-4)GlcNAc(b1-3)Gal(b1-4)GlcNAc(b1-3)Gal(b1-4)GlcNAc(b1-2)Man(a1-3)[Neu5Ac(a2-3)Gal(b1-4)GlcNAc(b1-3)Gal(b1-4)GlcNAc(b1-3)Gal(b1-4)GlcNAc(b1-2)Man(a1-6)]GalNAc
Method in brief: as §1

[33] = biological target: Neu5Ac(a2-3)Gal(b1-4)GlcNAc(b1-3)Gal(b1-4)GlcNAc(b1-3)GalNAc
Method in brief: as §1

[34] = biological target: Neu5Ac(a2-3)Gal(b1-4)GlcNAc(b1-3)Gal(b1-4)GlcNAc(b1-3)[Neu5Ac(a2-3)Gal(b1-4)GlcNAc(b1-3)Gal(b1-4)GlcNAc(b1-6)]GalNAc
Method in brief: as §1

[35] = biological target: Neu5Ac(a2-3)Gal(b1-4)GlcNAc(b1-3)Gal(b1-4)GlcNAc(b1-6)[Gal(b1-3)]GalNAc
Method in brief: as §1

[36] = biological target: Neu5Ac(a2-3)Gal(b1-4)GlcNAc(b1-3)Gal(b1-4)[Fuc(a1-3)]GlcNAc
Method in brief: as §1

[37] = biological target: Neu5Ac(a2-3)Gal(b1-4)GlcNAc(b1-3)GalNAc
Method in brief: as §1

B1: SGC, Q9M345 (protein)
chain: QNLNFTYNGFHPPLTDISLQGLATVTPNGLLKLTNTSVQKTGHAFCTERIRFKDSQNGNVSSFSTTFVFAIHSQIPTLSGHGIAFVVAPTLGLPFALPSQYIGLFNISNNGNDTNHIFAVEFDTIQSSEFGDPNDNHVGIDLNGLRSANYSTAGYRDDHDKFQNLSLISRKRIQVWIDYDNRSHRIDVTVAPFDSDKPRKPLVSYVRDLSSILLEDMYVGFSSATGSVLSEHFLVGWSFRLNGEAPMLSLSKLPKLPRFEPRRIS
- glycan array binding signal (z-score) [1]: -0.349
- glycan array binding signal (z-score) [2]: -0.433
- glycan array binding signal (z-score) [3]: -0.362
- glycan array binding signal (z-score) [4]: 0.081
- glycan array binding signal (z-score) [5]: -0.24
- glycan array binding signal (z-score) [6]: -0.482
- glycan array binding signal (z-score) [7]: -0.413
- glycan array binding signal (z-score) [8]: -0.335
- glycan array binding signal (z-score) [9]: -0.249
- glycan array binding signal (z-score) [10]: -0.283
- glycan array binding signal (z-score) [11]: -0.301
- glycan array binding signal (z-score) [12]: -0.332
- glycan array binding signal (z-score) [13]: -0.418
- glycan array binding signal (z-score) [14]: -0.332
- glycan array binding signal (z-score) [15]: -0.352
- glycan array binding signal (z-score) [16]: -0.198
- glycan array binding signal (z-score) [17]: -0.301
- glycan array binding signal (z-score) (Neu5Ac(a2-3)Gal(b1-4)Glc): 0.069
- glycan array binding signal (z-score) [18]: -0.311
- glycan array binding signal (z-score) [19]: -0.386
- glycan array binding signal (z-score) [20]: -0.038
- glycan array binding signal (z-score) [21]: -0.297
- glycan array binding signal (z-score) [22]: -0.334
- glycan array binding signal (z-score) [23]: -0.356
- glycan array binding signal (z-score) [24]: -0.404
- glycan array binding signal (z-score) [25]: -0.366
- glycan array binding signal (z-score) [26]: -0.336
- glycan array binding signal (z-score) [27]: -0.387
- glycan array binding signal (z-score) [28]: -0.417
- glycan array binding signal (z-score) [29]: -0.344
- glycan array binding signal (z-score) [30]: 0.489
- glycan array binding signal (z-score) [31]: -0.393
- glycan array binding signal (z-score) [32]: 0.533
- glycan array binding signal (z-score) [33]: -0.318
- glycan array binding signal (z-score) [34]: -0.172
- glycan array binding signal (z-score) [35]: -0.349
- glycan array binding signal (z-score) [36]: -0.395
- glycan array binding signal (z-score) [37]: -0.36
